The assay addresses Genome polyprotein (dengue virus type 2) (UniProt P29990).
Where [1] appears, read: Thailand/16681/1984, Concentration 25.0 uM, Number of replicates 1.0.

Our source for the inhibition values is ChEMBL document CHEMBL5606460, “ASAP - DENV-2 NS2B-NS3 protease fluorescence single point” (2024).

As a reminder, the inhibition is the drop in the measured response relative to a control, in per cent.

Among all 2,000 compounds or so, about 110 (5.5%) showed an effect of 50% or more. The list shows a part of the results.

On to `CC(C)Oc1cc(COc2cccnc2F)nc(N2CCNCC2)n1`, for which the inhibition is -4.73% (Thailand/16681/1984, Concentration 49.5 uM, Number of replicates 2.0, Standard deviation 3.358190925579508 %); -4.38% (Thailand/16681/1984, Concentration 99.01 uM, Number of replicates 2.0, Standard deviation 3.5388488398618163 %); -2.78% (Thailand/16681/1984, Concentration 198.0 uM, Number of replicates 2.0, Standard deviation 3.6589908549859094 %).

As to `O=C(c1c[nH]c2ccccc12)N1CCC(c2c[nH]c3cccnc23)CC1`, the inhibition was -3.41% (Thailand/16681/1984, Concentration 49.5 uM, Number of replicates 2.0, Standard deviation 2.729734715573928 %); -2.5% (Thailand/16681/1984, Concentration 99.01 uM, Number of replicates 2.0, Standard deviation 2.915126500660707 %); 0.248% (Thailand/16681/1984, Concentration 198.0 uM, Number of replicates 2.0, Standard deviation 2.8556732921408456 %).

With `Cc1cc(CO)c2cccc(Cc3cccc(C(=O)NCC4CCOCC4)c3)c2n1`, the inhibition runs as follows: (Thailand/16681/1984, Concentration 49.95 uM, Number of replicates 2.0, Standard deviation 2.974500515252217 %) -4.55%; (Thailand/16681/1984, Concentration 99.9 uM, Number of replicates 2.0, Standard deviation 0.6848752879745666 %) -1.14%.

Consider `CN(Cc1ccccc1NC(=O)C1CCN(c2ccc(C=O)cc2)CC1)C1CCCCC1`, for which the inhibition under setting [1] was found to be 13.6%.

`COc1cc(Cc2ccc(S(=O)(=O)NCCO)cc2)nc(N2CCNCC2)n1`: the inhibition runs as follows: (Thailand/16681/1984, Concentration 49.5 uM, Number of replicates 2.0, Standard deviation 0.08182962367044716 %) -2.78%; (Thailand/16681/1984, Concentration 99.01 uM, Number of replicates 2.0, Standard deviation 0.3472509194543487 %) -2.12%; (Thailand/16681/1984, Concentration 198.0 uM, Number of replicates 2.0, Standard deviation 1.2127555040010847 %) -2.14%.

Turning to `NCc1cccc(NC(=O)[C@@H](Cc2cccc(O)c2)NC(=O)OCc2ccccc2)c1`, the inhibition is -3.63% (Thailand/16681/1984, Concentration 49.5 uM, Number of replicates 2.0, Standard deviation 2.8573642237031027 %); -3.65% (Thailand/16681/1984, Concentration 99.01 uM, Number of replicates 2.0, Standard deviation 1.9175045904819328 %); -2.84% (Thailand/16681/1984, Concentration 198.0 uM, Number of replicates 2.0, Standard deviation 1.9524208099559948 %).

For the molecule `O=Cc1ccc(N2CCC(C(=O)NCc3ccc(OC(F)(F)F)cc3)CC2)cc1`, under setting [1], the inhibition was found to be 10.7%.

On to `Cc1cc(CO)c2cccc(Cc3ccccc3C(=O)N3CCC(CN)CC3)c2n1`, for which the inhibition by setting is: (Thailand/16681/1984, Concentration 49.95 uM, Number of replicates 2.0, Standard deviation 7.669453256982897 %) 67%; (Thailand/16681/1984, Concentration 99.9 uM, Number of replicates 2.0, Standard deviation 4.997502207892192 %) 86.3%.

For the molecule `O=C(Nc1nc2ccccc2[nH]1)[C@@]1(c2ccc(F)cc2)CCCNC1`, the inhibition by setting is: (Thailand/16681/1984, Concentration 49.5 uM, Number of replicates 2.0, Standard deviation 0.9171252879352392 %) 0.644%; (Thailand/16681/1984, Concentration 99.01 uM, Number of replicates 2.0, Standard deviation 1.169983954901562 %) 1.06%; (Thailand/16681/1984, Concentration 198.0 uM, Number of replicates 2.0, Standard deviation 0.7736108835077664 %) 2.49%.

Regarding `CC(C)(CO)NC(=O)c1cc(Cl)cc(NC(=O)c2c[nH]c(=O)o2)c1`, the inhibition was -0.805% (Thailand/16681/1984, Concentration 49.5 uM, Number of replicates 2.0, Standard deviation 0.8910462701673381 %); 1.01% (Thailand/16681/1984, Concentration 99.01 uM, Number of replicates 2.0, Standard deviation 0.1489851898290989 %); 4.89% (Thailand/16681/1984, Concentration 198.0 uM, Number of replicates 2.0, Standard deviation 0.6795059902085213 %).

Regarding `CCCc1nn(C)c(C(N)=O)c1Nc1cccc2c(CO)cc(C)nc12`, the inhibition reads like this: (Thailand/16681/1984, Concentration 49.95 uM, Number of replicates 2.0, Standard deviation 0.3385554582582744 %) -0.283%; (Thailand/16681/1984, Concentration 99.9 uM, Number of replicates 2.0, Standard deviation 0.771265242800741 %) 3.07%.

On to `CNC(=O)[C@H]1CCN(S(=O)(=O)c2ccc(Oc3ccccc3Cl)cc2)C1`, for which the inhibition is, setting by setting: (Thailand/16681/1984, Concentration 49.5 uM, Number of replicates 2.0, Standard deviation 0.2326651022960228 %) -2.7%; (Thailand/16681/1984, Concentration 99.01 uM, Number of replicates 2.0, Standard deviation 1.0727392899756494 %) -1.81%; (Thailand/16681/1984, Concentration 198.0 uM, Number of replicates 2.0, Standard deviation 0.8124211767562954 %) 0.204%.

With `Cc1nc([C@H]2CCCNC2)[nH]c1C(=O)N1CCN([C@H](C)C(=O)NC2CCCC2)CC1`, the inhibition runs as follows: (Thailand/16681/1984, Concentration 49.5 uM, Number of replicates 2.0, Standard deviation 0.15595109451043393 %) -3.77%; (Thailand/16681/1984, Concentration 99.01 uM, Number of replicates 2.0, Standard deviation 0.465726384968048 %) -3.64%; (Thailand/16681/1984, Concentration 198.0 uM, Number of replicates 2.0, Standard deviation 0.9729217285355408 %) -3.32%.

As to `O=Cc1ccc(N2CCC(C(=O)N3CCC(C(=O)NCCO)CC3)CC2)cc1`, the inhibition under setting [1] amounted to 12.8%.

On to `CC(=O)Nc1cccc(CNC(=O)C2CCN(c3ccc(C=O)cc3)CC2)c1`, for which the inhibition under setting [1] was determined as 15.8%.

Consider `O=C(c1cccn2ccnc12)N1CC[C@H](c2c[nH]c3ccccc23)C1`, for which the inhibition by setting is: (Thailand/16681/1984, Concentration 49.5 uM, Number of replicates 2.0, Standard deviation 0.46479721554577685 %) -0.016%; (Thailand/16681/1984, Concentration 99.01 uM, Number of replicates 2.0, Standard deviation 0.206818378859323 %) 1.15%; (Thailand/16681/1984, Concentration 198.0 uM, Number of replicates 2.0, Standard deviation 0.3292768058509988 %) 2.63%.

Regarding `CCS(=O)(=O)c1ccccc1C(=O)Nc1ccncc1C`, the inhibition is, setting by setting: (Thailand/16681/1984, Concentration 49.5 uM, Number of replicates 2.0, Standard deviation 0.526238469836473 %) 3.98%; (Thailand/16681/1984, Concentration 99.01 uM, Number of replicates 2.0, Standard deviation 7.236859352566233 %) 7.19%; (Thailand/16681/1984, Concentration 198.0 uM, Number of replicates 2.0, Standard deviation 2.9244017365390755 %) 4.24%.

For the molecule `O=Cc1ccc(N2CCC(C(=O)NCc3c(F)cc(F)c(F)c3F)CC2)cc1`, under setting [1], the inhibition was determined as 13.6%.

`Cc1cc(CO)c2cccc(NC(=O)c3cccc(Cn4cncn4)c3)c2n1`: the inhibition was found to be 2.3% (Thailand/16681/1984, Concentration 49.95 uM, Number of replicates 2.0, Standard deviation 2.3639363167890877 %) and 6.53% (Thailand/16681/1984, Concentration 99.9 uM, Number of replicates 2.0, Standard deviation 2.324751717378933 %).

Regarding `COc1cc(COc2ccc(CO)cc2F)nc(N2CCNCC2)n1`, the inhibition by setting is: (Thailand/16681/1984, Concentration 49.5 uM, Number of replicates 2.0, Standard deviation 3.6186161339409284 %) -4.25%; (Thailand/16681/1984, Concentration 99.01 uM, Number of replicates 2.0, Standard deviation 1.1962405142931818 %) -1.95%; (Thailand/16681/1984, Concentration 198.0 uM, Number of replicates 2.0, Standard deviation 0.8125920400801586 %) -1.13%.

As for `C[C@@]1(CNC(=O)c2ccnc3[nH]cnc23)CCCN1C(=O)c1cc[nH]n1`, the inhibition reads like this: (Thailand/16681/1984, Concentration 49.5 uM, Number of replicates 2.0, Standard deviation 0.46118901462513606 %) 0.303%; (Thailand/16681/1984, Concentration 99.01 uM, Number of replicates 2.0, Standard deviation 0.21948477124230198 %) 0.135%; (Thailand/16681/1984, Concentration 198.0 uM, Number of replicates 2.0, Standard deviation 0.9711523827616293 %) 0.225%.
